# In the supplement of paper PMC3334620:
# Whole data set: some 33,000 sequences, median “E-score (-0.5 to 0.5)” near -0.043, cut for the highest 2% near 0.37. Some of the results follow.
# Target: T1, Upc2 (UniProt Q12151)
# T1 sequence: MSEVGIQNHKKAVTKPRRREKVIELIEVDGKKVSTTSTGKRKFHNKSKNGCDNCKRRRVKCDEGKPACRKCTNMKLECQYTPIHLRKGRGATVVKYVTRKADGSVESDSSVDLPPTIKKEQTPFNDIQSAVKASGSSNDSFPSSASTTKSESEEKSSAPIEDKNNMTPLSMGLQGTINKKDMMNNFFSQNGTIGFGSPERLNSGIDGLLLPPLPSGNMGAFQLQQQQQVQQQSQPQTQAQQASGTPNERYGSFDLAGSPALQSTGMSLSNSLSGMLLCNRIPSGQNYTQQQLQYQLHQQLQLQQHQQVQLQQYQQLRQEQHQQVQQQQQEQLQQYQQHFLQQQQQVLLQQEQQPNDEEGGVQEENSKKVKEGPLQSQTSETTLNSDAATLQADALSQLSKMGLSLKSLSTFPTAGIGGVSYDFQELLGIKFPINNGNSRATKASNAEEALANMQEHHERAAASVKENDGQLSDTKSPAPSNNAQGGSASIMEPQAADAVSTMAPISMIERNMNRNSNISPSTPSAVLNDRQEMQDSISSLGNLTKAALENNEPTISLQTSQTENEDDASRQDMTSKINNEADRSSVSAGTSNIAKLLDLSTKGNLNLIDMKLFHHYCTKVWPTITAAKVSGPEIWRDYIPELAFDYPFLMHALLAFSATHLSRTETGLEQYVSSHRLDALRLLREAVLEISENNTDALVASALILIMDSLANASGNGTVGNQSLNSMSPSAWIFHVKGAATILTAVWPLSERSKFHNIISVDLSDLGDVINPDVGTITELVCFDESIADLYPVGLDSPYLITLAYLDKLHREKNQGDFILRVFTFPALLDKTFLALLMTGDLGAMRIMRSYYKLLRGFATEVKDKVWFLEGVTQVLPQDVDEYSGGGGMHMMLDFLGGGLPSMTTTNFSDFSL
# Experiment: PBM E-score (8-mer binding enrichment) (E-score (-0.5 to 0.5)); higher = stronger / more preferred TF binding; most listed sequences are background and not binding sites
# Settings: protein concentration: 200 nM; construct: GST-full length
# Method in brief: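 Detection of bound protein used fluorescent anti-GST, with scans normalised by masliner. The proteins were GST-tagged yeast transcription factors applied at about 100-200 nM to universal all-10-mer Agilent arrays made double-stranded by primer extension. Each ungapped eight-base word, pooled with its reverse complement, was scored with an E-score from the Universal PBM Analysis Suite.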
row,Sequence,PBM E-score
1,CCGGCTGA,-0.123
2,TCGACACA,0.0793
3,ATAGAGTA,0.0723
4,GGTGCGAA,0.176
5,ACAAGCCG,-0.119
6,GAACACGA,0.107
7,GGTTCAAC,0.0526
8,AAGATAGT,0.00824
9,ATTGACCG,0.113
10,CCCAGATA,-0.189
11,ATCTTATA,0.194
12,ACCATTCA,-0.248
13,ACAGCCGC,-0.173
14,CAACGCGG,-0.0183
15,TCCACTAA,-0.158
16,ACTCCTAA,-0.112
17,ATAACATA,0.106
18,ACTGCGTA,0.178
19,CGCCCGAG,-0.177
20,CTGGGTAA,-0.00044
21,AAGGGCCA,-0.314
22,CGCGCAAA,0.172
23,TGGCTACA,0.0472
24,CAAACAAA,0.0701
25,AAGGGAGA,-0.317

row,Sequence,PBM E-score
1,CACCTTGC,-0.0616
2,GCTGCATA,-0.173
3,GATCATGA,0.0871
4,CTCATCAC,-0.118
5,AGCTTTCA,-0.0969
6,ACCCCGAT,-0.219
7,AATGGCCA,-0.158
8,AGCGTCGA,0.0516
9,CAAACAGC,-0.0951
10,GGTTGGAC,-0.271
11,CGACGGTC,0.122
12,AAGTGCTA,-0.133
13,AATCCGCA,-0.152
14,AAGGTATC,-0.158
15,CTGGCGTA,0.0921
16,CTATGGTC,-0.0385
17,AATGTGCT,0.00011
18,TCCGGTCA,-0.122
19,ACGCTTTC,-0.074
20,CTGGCATC,-0.145
21,AGGGCCTA,-0.233
22,GAAACTAA,0.00434
23,GCTATGAA,-0.21
24,AACACAAT,0.0557
25,ATTGTACG,0.428

row,Sequence,PBM E-score
1,GTCCAGTA,-0.11
2,ATCGGGTG,0.0379
3,CTGCCCCA,-0.0538
4,ATACACGC,0.147
5,CAGAGTTC,-0.117
6,CCCGCTAG,-0.118
7,CGCCTCAC,-0.0329
8,GCTAAAAC,0.0226
9,GAACTTCA,-0.187
10,GGTGTCAA,-0.169
11,AGTGCCGA,-0.143
12,GAGATAGC,-0.156
13,GAATTTCA,-0.125
14,CTCATTGC,-0.0756
15,CCAGGCAC,-0.306
16,CCCTCTCG,0.0379
17,CAACCAAC,-0.166
18,TTCGGAAA,0.115
19,ATTAGATA,0.0616
20,AGCCTCCA,-0.197
21,CTAGCCTA,-0.349
22,CCTGACGA,-0.0951
23,CGCCCTTC,-0.0838
24,AGGACGGG,-0.202
25,TAGCGTAA,0.199

row,Sequence,PBM E-score
1,CTCTGCGC,0.0237
2,AGTATTGC,-0.00103
3,GGTACAAC,-0.0773
4,GCAGTTAA,0.0277
5,TCCTACCA,-0.268
6,ATTCCTTG,-0.12
7,GAAGGAAA,0.0226
8,TGAGGGCA,-0.0372
9,GGGTCAAC,-0.231
10,ACATCTAC,-0.0289
11,GGGTTCGA,-0.0373
12,AGCCGCAC,-0.0383
13,AACGTCAG,-0.209
14,CATCGTTC,0.416
15,AACGCTGT,0.0242
16,AATATCCC,-0.0942
17,ATTAGGGC,-0.313
18,CAAATGCG,0.053
19,ATTGAACC,-0.182
20,AGGCTGAT,-0.235
21,CCAAAAAA,-0.0391
22,GCTCCCCC,-0.304
23,GGAGCGAC,0.209
24,CGTTGGGC,-0.181
25,GAACTCTA,0.044

row,Sequence,PBM E-score
1,GAACGTAC,0.275
2,ATAACTCA,-0.0317
3,CTCTTTAA,-0.0799
4,ACTCTTGA,-0.136
5,GGGCATAA,-0.0918
6,TCAATTAA,0.0463
7,CATACGTA,0.315
8,GTGATCTA,0.00386
9,ACCACATA,0.0955
10,ACGCATCG,0.267
11,TCCCACGA,-0.152
12,CCGGACTA,-0.327
13,GCTAGGTA,-0.057
14,AGGGTAAG,-0.116
15,TAAACGCA,0.399
16,AGATGAAT,-0.206
17,CACACGAC,0.261
18,AAGTTGTG,-0.0439
19,ATTACACG,0.16
20,AACAAATA,0.188
21,AAAAACGT,0.0237
22,AGGCTTAC,-0.0341
23,CGGCATAC,0.182
24,GAAATCAC,0.0355
25,AAAATTCT,0.0514

row,Sequence,PBM E-score
1,CTGTTCCC,-0.246
2,CGGGGATC,-0.0274
3,AGTCGCCG,0.154
4,AAGTTGTC,-0.112
5,CAGCTCGA,-0.209
6,AGAAACGG,0.217
7,GCTGATTA,0.0887
8,GACGCGTA,0.274
9,GGTAACAA,0.0632
10,CATACTAC,-0.26
11,AGTACACG,0.198
12,GATAGATC,0.0671
13,CCAGTTGA,-0.135
14,GAGAAAGC,0.0515
15,ACTCCTGA,-0.202
16,AACCACGT,0.116
17,TACCTGCA,-0.0203
18,CACTCGGA,0.119
19,ACCCCGCT,0.00551
20,GGATGCTA,-0.0482
21,ATGTCCCA,-0.178
22,ATTCCAAG,-0.158
23,AATCATAA,-0.0124
24,TAAGTGCA,0.112
25,ATGTGGTC,-0.0101

row,Sequence,PBM E-score
1,CCGCTACC,0.153
2,AGACACTA,0.0521
3,ACCCAAAT,-0.0268
4,GATAGGGA,-0.252
5,AAGTCTAA,-0.145
6,CAATTTAG,-0.126
7,CGGGTCGC,0.165
8,TAGGTAAA,0.00379
9,TGTAGAAA,-0.108
10,TCTCATAA,-0.104
11,ATGCTCAC,-0.0484
12,CCTTCGCC,-0.279
13,ATTCGCGG,-0.0484
14,ACATCTCC,-0.12
15,AACCTGGA,-0.221
16,CCCCTCAG,-0.161
17,CATACAAC,-0.0696
18,CCGGATTC,-0.113
19,CTCCTACA,-0.186
20,AACCACTT,0.121
21,AGCTTCCC,0.0109
22,TGCTACAA,-0.173
